# In all, about 110,000 compounds were measured (“z-score”: median about -0.1, highest 2% from about 2 on). This is one part of the list. Calls of active or inactive are those of the source.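 The calls were made as follows: active = z-score in the third read window above 3 or below -3; inactive = the rest.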
# Molecular target: Metabotropic glutamate receptor 8 (Rattus norvegicus) (UniProt P70579)
# Experiment: mGluR8 Gi/Go-coupled signaling modulation – cell-based, rat, thallium flux, HTS, primary screen (AID 488969)
# Details: HEK293 rat mGluR8, GIRK (G protein-gated inwardly rectifying potassium channel) thallium flux, FluoZin2; at 10 µM; stronger effect = higher value; submaximal glutamate (EC20) added with thallium
# UniProt P70579, sequence (P70579 whole entry, looked up): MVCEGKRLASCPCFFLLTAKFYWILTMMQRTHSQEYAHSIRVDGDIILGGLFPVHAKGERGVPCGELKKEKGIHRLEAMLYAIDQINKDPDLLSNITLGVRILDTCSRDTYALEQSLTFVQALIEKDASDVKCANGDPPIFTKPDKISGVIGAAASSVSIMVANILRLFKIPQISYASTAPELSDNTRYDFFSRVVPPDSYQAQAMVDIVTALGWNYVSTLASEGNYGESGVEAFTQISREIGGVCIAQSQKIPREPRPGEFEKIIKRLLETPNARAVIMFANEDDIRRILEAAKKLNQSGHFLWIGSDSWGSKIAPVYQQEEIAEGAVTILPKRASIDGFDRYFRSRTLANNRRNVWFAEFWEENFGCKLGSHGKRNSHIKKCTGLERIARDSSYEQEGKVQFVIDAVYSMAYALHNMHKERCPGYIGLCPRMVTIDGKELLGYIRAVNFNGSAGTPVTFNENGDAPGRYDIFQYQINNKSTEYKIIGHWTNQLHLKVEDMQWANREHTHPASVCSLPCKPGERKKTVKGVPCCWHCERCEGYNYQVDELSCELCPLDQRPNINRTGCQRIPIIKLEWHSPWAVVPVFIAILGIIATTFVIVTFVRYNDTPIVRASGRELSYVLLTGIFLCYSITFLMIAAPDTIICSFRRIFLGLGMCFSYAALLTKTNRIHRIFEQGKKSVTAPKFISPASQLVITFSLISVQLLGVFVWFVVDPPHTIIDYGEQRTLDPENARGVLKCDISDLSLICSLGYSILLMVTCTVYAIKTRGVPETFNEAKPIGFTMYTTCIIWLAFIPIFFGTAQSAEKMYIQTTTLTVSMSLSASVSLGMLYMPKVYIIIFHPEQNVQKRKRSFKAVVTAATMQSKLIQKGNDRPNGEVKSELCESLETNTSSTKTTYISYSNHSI
row,SMILES,z-score
1,Cc1noc(C)c1CSc1nc2ccccc2nc1NS(=O)(=O)c1ccc(Cl)cc1,-2.14
2,CC(/C=N/NC(=O)c1nn(C)c(C)c1Br)=C\c1ccccc1,-0.0235
3,CCCCOCCCNC(=O)CCCOc1ccccc1,-0.0568
4,CCCCn1c(/N=C/c2c[nH]c3ccccc23)nc2ccccc21,-0.327
5,Cc1ccc2c(Cn3cc(C(F)(F)F)cc(Cl)c3=O)cc(=O)oc2c1,-0.249
6,CC(NC(=O)Cn1nc(-c2ccccc2)c2ccccc2c1=O)c1ccccc1 (centres undefined),-0.117
7,CCOC(=O)Nc1cccc(Cl)c1C,-0.345
8,COc1cc(/C=C2\N=C(c3ccccc3)OC2=O)ccc1OCc1c(C)no[n+]1[O-],-0.277
9,COc1ccc(N2CCN(C(=O)CNC(=O)c3ccc(C(C)(C)C)cc3)CC2)cc1,0.378
10,CC1CCC/C(=N\NC(=O)COc2ccccc2Cl)C1 (centres undefined),0.319
11,COc1ccc2sc3ccccc3c(=O)c2c1OC,0.156
12,CC1=CC2=NC(=O)CC(C)(C(=O)N(CC(=O)NC(C)(C)C)Cc3cccs3)N2C=C1 (centres undefined),-0.0195
13,CCN(CC)c1ccc(NC(=O)CN2CCN(c3ccc(F)cc3)CC2)cc1,-0.0649
14,CC1CCCC(NC(=O)CCCn2c(=O)[nH]c3cc(Cl)ccc3c2=O)C1C (centres undefined),0.035
15,COc1ccc(C(=O)Nc2sc3c(c2C(=O)O)CC(C)(C)OC3)cc1,-0.257
16,CCN(CC)CCOC(=O)c1c(C)n(C)c2ccc(OC)cc12,-0.079
17,Cc1ccc(Nc2nnc(SCC(=O)Nc3cccc(S(=O)(=O)N4CCCCC4)c3)s2)cc1,-0.23
18,Cc1ccc(Cn2ccc(=O)c(OCc3ccccc3)c2C)cc1,-0.0263
19,CCn1nnnc1SCC(=O)Nc1ccc(OCc2ccccc2)cc1,0.107
20,FC(F)(F)c1cccc(N2CCN(CC3CC4C=CC3C4)CC2)c1 (centres undefined),0.232
21,CCOC(=O)N1CCC(NC(=O)C2CCCCN2S(=O)(=O)c2ccc(F)cc2)CC1 (centres undefined),-0.566
22,COC(=O)C(CC(=O)Nc1cc(C)ccc1C)Nc1ccccc1OC (centres undefined),-0.367

row,SMILES,z-score
1,COc1ccc(NC(=O)c2ccc(OC(=S)N(C)c3ccc(OC)cc3)cc2)cc1,-0.0222
2,CC(=O)c1sc2ccccc2c1OC(=O)c1ccco1,-1.18
3,Nc1nncn1C(=O)c1cccs1,1.33
4,O=c1c2c(-c3ccccc3)csc2nc2n1CCC2,-0.283
5,O=C(CCl)N(c1ccccc1)C1CCS(=O)(=O)C1 (centres undefined),-0.0909
6,O=C(Nc1ccc(Sc2ccc(Br)cc2)cc1)c1ccco1,-0.197
7,CCCc1nnc(NC(=O)C(CC)OC(=O)c2cc(C)nc3ccccc23)s1 (centres undefined),-0.638
8,O=C(CCCC(=O)OCC(F)(F)C(F)F)Nc1nccs1,0.162
9,CCCN(CCC)CCNC(=O)c1cc2c(C)nc3ccccc3c2o1,-0.396
10,CCCCOc1ccc(S(=O)(=O)NNC(=O)C2Cc3c(ccc4ccccc34)O2)cc1 (centres undefined),1.01
11,COc1ccc(NC(=O)c2ccc(CN(c3cc(Cl)ccc3C)S(=O)(=O)c3ccccc3)cc2)cc1OC,-0.186
12,CC1CCc2nc(NC(=O)CN3CCN(c4ccc(F)cc4)CC3)sc2C1 (centres undefined),0.333
13,Cc1cc(C(=O)COC(=O)c2ccc[nH]c2=O)c(C)n1-c1ccccc1,-0.249
14,Cc1ccccc1OCCNC(=O)/C=C/c1ccccc1,0.124
15,CCN(CC)C(=O)CSc1nc2sc3c(c2c(=O)n1-c1ccc(C)cc1)CC(C)(C)SC3,-1.68
16,COc1ccc(NC(=O)NCc2ccccn2)cc1OC,0.148
17,O=C1CCC2(C(=O)O)Sc3ccccc3N12 (centres undefined),-0.169
18,COc1ccc(C(=O)NC(=S)Nc2ccccc2N2CCOCC2)cc1[N+](=O)[O-],-0.229
19,COc1ccc(NC2=C(C(C)=O)C(c3ccc(OC)c(OC)c3)C(C(C)=O)C(C)(O)C2)cc1 (centres undefined),-0.302
20,COC(=O)c1onc(-c2c(C)cc(C)cc2C)c1C(=O)OC,-0.78
21,CC(=O)c1cccc(NC(=O)C2CCN(S(=O)(=O)c3ccc(C)cc3)CC2)c1,0.101
22,Cc1nn(C)c(C)c1S(=O)(=O)N1CCC(C(=O)NCC2COc3ccccc3O2)CC1 (centres undefined),0.14

row,SMILES,z-score
1,O=C(Nc1ccc2nc(-c3ccccc3)[nH]c2c1)c1cccs1,-0.335
2,COC(=O)c1cc(OC)c(OC)cc1NC(=O)c1ccc(OC)cc1,1.48
3,Nc1nc(SCC(=O)N2CCCc3ccccc32)n(-c2ccccc2)n1,1.69
4,O=C(c1cccs1)n1nc(-c2ccccc2)nc1NCc1ccco1,0.246
5,OC(c1ccccc1)(c1ccc(F)cc1)C(c1ccccc1)N1CCOCC1 (centres undefined),-0.295
6,O=C(COc1ccc(Cl)cc1)Nc1ccc(N2CCN(C(=O)c3ccco3)CC2)cc1,-0.172
7,Cc1ccccc1-c1nn[nH]n1,-0.33
8,Cc1ccc2nc(NCC(=O)O)nc(-c3ccccc3)c2c1,-0.812
9,COCc1cc(C)[nH]c(=O)c1C#N,-0.172
10,Cc1ccc2oc(=O)n(CCOc3ccccc3Cl)c2c1,0.434
11,CC1CCN(C(=O)C2CCC(C)(C(=O)O)C2(C)C)CC1 (centres undefined),-0.000982
12,S=C(NCCc1ccccc1)NCC1CCCO1 (centres undefined),-0.0374
13,CCOC(=O)c1cnc(SCC(=O)Nc2ccc(NC(C)=O)c(OC)c2)nc1N,0.0886
14,CC(=O)c1cc(C#N)c(SCC(=O)O)nc1C,0.242
15,N#CC1=C(N)N2C(=C(C#N)C1c1ccccc1)Sc1ccccc12 (centres undefined),0.634
16,CNc1sc(C(=O)c2ccccc2F)c(N)c1-c1nc2ccccc2s1,0.623
17,COc1ccc(/C(O)=C2/C(=O)C(=O)N(CCN3CCOCC3)C2c2cccnc2)cc1OC (centres undefined),0.473
18,CCCc1cc(C(=O)Nc2ccc(C(C)=O)cc2)no1,0.0305
19,CCc1cccc(CC)c1NC(=O)c1ccccc1CCc1ccccc1,-0.15
20,CC(=O)Nc1cc(C(=O)N(C)Cc2ccco2)ccc1Sc1ccc(Cl)cc1,-0.205
21,O=C(O)[C@@H](c1ccccc1)N1Cc2ccccc2C1=O,0.726
22,COc1ccc(N(CC(=O)Nc2ccc(C)c(C)c2)S(=O)(=O)c2c(C)n[nH]c2C)cc1,-0.00199

row,SMILES,z-score
1,C(/CCc1ccccc1)=N\n1cnnc1,0.337
2,CCOC(=O)c1c(C)[nH]c(C(=O)OCC(=O)Nc2ccc(OCC)cc2)c1C,0.0222
3,Cc1ccc(-c2nn(-c3ccccc3)cc2CN(Cc2ccccc2)C(=O)c2ccco2)o1,-0.107
4,CSc1ccccc1NC(=O)Nc1ccccc1,0.531
5,O=C1C(=O)N(CCCn2ccnc2)C(c2cccnc2)/C1=C(/O)c1ccc(Br)cc1 (centres undefined),-0.218
6,CCC(C)N=Cc1c(NCc2ccco2)nc2c(C)cccn2c1=O (centres undefined),-0.475
7,O=C(NCc1cccnc1)C1CCCN(Cc2cnn(-c3ccccc3)c2-n2cccc2)C1 (centres undefined),0.201
8,CCCC1(C(=O)O)NC(c2cccc(OC)c2O)C2C(=O)N(c3ccccc3)C(=O)C21 (centres undefined),-0.169
9,Cc1ccc(Sc2cc(N3CCOCC3)nc(-c3ccccc3)n2)cc1,0.0258
10,O=C(O)CCC1=C2c3ccccc3CCN2C(=O)CC1,-0.234
11,CCN1CCN(c2cc(SC(C)C)nc(-c3ccc(OC)cc3)n2)CC1,-0.78
12,CCOC(=O)N1CCC(N(CCN(C)C)C(=S)Nc2cccc(C)c2)CC1,0.181
13,Cc1ccccc1NC(=O)C1CCC(C)(C(=O)O)C1(C)C (centres undefined),0.0725
14,CCOC(=O)N1CCN(C(=O)c2ccc(C#CC3(O)CCCCC3)cc2)CC1,0.0727
15,Cc1ccccc1NC(=O)c1ccc(Nc2c([N+](=O)[O-])cc([N+](=O)[O-])c3ccccc23)cc1,-0.13
16,Cc1nn(C)c(C)c1S(=O)(=O)N(CC(=O)N1CCc2ccccc2C1)c1ccc(C(C)C)cc1,-0.0258
17,CCC(NC(=O)Nc1nccs1)(C(F)(F)F)C(F)(F)F,0.489
18,CC(C(=O)N1CCCc2ccccc21)N1C(=O)c2ccccc2C1=O (centres undefined),0.21
19,COc1ccc(N(CC(=O)NCc2cccs2)S(=O)(=O)c2c(C)nn(C)c2C)cc1,-0.00457
20,CCC(=O)Nc1ccc(S(=O)(=O)N2CCCCC2)cc1OC,0.0489
21,CS(=O)(=O)N1CCN(C(=S)NCc2ccc(F)cc2)CC1,-0.0373
22,Cc1ccc(NCN2C(=O)C3CC=C(Cl)CC3C2=O)cc1 (centres undefined),0.0121

row,SMILES,z-score
1,COc1cc(C(=O)N(C)c2nnc(-c3cccnc3)s2)cc(OC)c1OC,-0.385
2,Cn1cc(C=C2C(=O)CC(C)(C)CC2=O)c2ccccc21,-1.12
3,O=C(c1ccncc1)N1CCN(C(=O)c2cccs2)CC1,0.201
4,CCc1ccc2nc(Nc3nc(COC)cc(=O)[nH]3)nc(C)c2c1,2.69
5,COc1ccccc1CC(=O)Nc1ccc(-c2noc(COc3ccc(Cl)c(C)c3)n2)cc1,-0.166
6,CCOC(=O)C(=O)/C(C#N)=C/Nc1ccccc1,-0.0235
7,COc1ccc2nc(NC(=O)CN3CCN(C)CC3)sc2c1,0.194
8,O=C(Nc1ccc(F)cc1)N(Cc1ccco1)Cc1cc2cc3c(cc2[nH]c1=O)OCO3,0.316
9,Cc1cc(C)c(C)c(OCC(=O)NCc2nc(-c3ccccc3)no2)c1,-0.298
10,O=C(Nc1ccc(N2CCOCC2)cc1)c1ccc2nc(-c3ccco3)c(-c3ccco3)nc2c1,0.375
11,CCN(CC)c1ccc2cc(-c3nnc(-c4ccc(Br)cc4)o3)c(=O)oc2c1,active: -4
12,COc1ccccc1-n1cnc(N)c1C(C)=O,0.258
13,O=C1NC(CCc2ccccc2)C(=O)N1Cc1cccc2ccccc12 (centres undefined),-0.311
14,COc1ccc2nc(SCC(=O)Nc3ccc4sc(C)nc4c3)c(C#N)cc2c1,-0.0545
15,COc1ccc(OCC(=O)Nc2sc3c(c2C(=O)NCC2CCCO2)CCC3)cc1 (centres undefined),-0.55
16,CCn1c2ccccc2c2cc(CN3CCN(S(C)(=O)=O)CC3)ccc21,-0.000409
17,CCCC(=O)NC(C)c1nc2ccccc2n1C (centres undefined),-0.523
18,CSc1cccc(NC(=O)C2CCCN(S(=O)(=O)c3cnc[nH]3)C2)c1 (centres undefined),0.844
19,CN1/C(=c2/s/c(=C3/C(=O)N(c4ccccc4)NC3=Nc3ccccc3)n(C)c2=O)C(C)(C)c2ccccc21,-0.291
20,COc1ccc2cc(C(c3nnnn3Cc3ccc(F)cc3)N3CCCCCC3)c(=O)[nH]c2c1 (centres undefined),0.021
21,O=C(CC(Nc1ccc(F)cc1)c1ccccc1)c1ccccc1 (centres undefined),-0.345

# Source: PubChem BioAssay AID488969 (Vanderbilt High Throughput Screening Facility, 2010)
